Results as given in the supplement of paper PMC3334620.
Over roughly 33,000 sequences, “E-score (-0.5 to 0.5)” has its median near -0.012; the highest 2% begin near 0.29. The list shows a part of the results.

These sequences were tested against T1, Ybr033w (UniProt P38073) (assay: PBM E-score (8-mer binding enrichment) (E-score (-0.5 to 0.5)); higher = stronger / more preferred TF binding; most listed sequences are background and not binding sites). Details: protein concentration: 200 nM; construct: GST-full length.
T1 sequence: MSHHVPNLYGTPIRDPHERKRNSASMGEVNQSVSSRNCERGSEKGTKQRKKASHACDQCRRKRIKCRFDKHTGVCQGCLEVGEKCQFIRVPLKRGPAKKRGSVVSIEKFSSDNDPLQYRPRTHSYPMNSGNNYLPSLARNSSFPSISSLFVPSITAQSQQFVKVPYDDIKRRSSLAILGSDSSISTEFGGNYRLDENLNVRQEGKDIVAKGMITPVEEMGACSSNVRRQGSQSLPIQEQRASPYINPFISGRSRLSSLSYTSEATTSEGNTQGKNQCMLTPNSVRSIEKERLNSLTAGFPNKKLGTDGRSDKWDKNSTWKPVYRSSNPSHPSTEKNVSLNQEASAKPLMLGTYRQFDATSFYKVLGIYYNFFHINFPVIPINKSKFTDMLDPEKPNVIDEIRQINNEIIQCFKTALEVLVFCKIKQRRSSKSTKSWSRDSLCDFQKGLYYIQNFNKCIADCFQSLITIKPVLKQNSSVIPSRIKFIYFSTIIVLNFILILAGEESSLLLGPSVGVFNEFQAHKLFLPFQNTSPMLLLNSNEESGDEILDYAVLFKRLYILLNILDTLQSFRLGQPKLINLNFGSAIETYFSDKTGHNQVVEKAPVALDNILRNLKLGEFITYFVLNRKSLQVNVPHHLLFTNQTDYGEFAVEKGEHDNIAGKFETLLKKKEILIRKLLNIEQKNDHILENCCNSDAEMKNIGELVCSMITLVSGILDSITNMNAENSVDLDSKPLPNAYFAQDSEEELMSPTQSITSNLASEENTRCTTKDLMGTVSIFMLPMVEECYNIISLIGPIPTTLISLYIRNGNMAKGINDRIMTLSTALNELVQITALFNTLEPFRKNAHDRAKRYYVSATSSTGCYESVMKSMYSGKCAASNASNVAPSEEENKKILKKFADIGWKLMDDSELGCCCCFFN
In short: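 Universal all-10-mer Agilent arrays, fresh or stripped once, were converted to double-stranded form by primer extension. GST-tagged yeast transcription factors from PURExpress in vitro transcription/translation, full-length or DNA-binding domain only, were applied at about 100-200 nM and detected with fluorescent anti-GST. After masliner normalisation, the Universal PBM Analysis Suite scored each ungapped eight-base word together with its reverse complement by E-score.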

Row | Sequence | PBM E-score
1 | CATTATGA | 0.109
2 | CACTAGTG | -0.192
3 | AGCCCCTC | -0.244
4 | CCCAAAAC | 0.157
5 | AGACGGGG | -0.216
6 | TAATTATA | 0.382
7 | CTGAATAA | 0.186
8 | GGCGAAGA | -0.108
9 | ATCGGGGC | -0.232
10 | ACCAAGGA | 0.114
11 | ACTCTCCC | -0.139
12 | AATAGACT | 0.0343
13 | ATAACCCC | -0.144
14 | CCGTGTAC | 0.181
15 | CAGTACTA | 0.0485
16 | ATCAGTTG | 0.0799
17 | GATCTTGC | 0.0857
18 | CGACCAGA | 0.0353
19 | CTTCCATC | -0.00237
20 | GAGCGATC | 0.0201
21 | TCGGCAAA | -0.0191
22 | ATCGCACG | 0.0266
23 | GACATAGC | 0.069
24 | AAGCGCGA | -0.0839
25 | CTCGAAGC | -0.0857

Row | Sequence | PBM E-score
26 | CGAAATAG | 0.0397
27 | ACCAGGAG | -0.0938
28 | ACAAGACC | -0.142
29 | AAGTAGAA | 0.266
30 | AGAGGTAC | -0.28
31 | TCTGCGCA | 0.0104
32 | CTCATAAG | 0.0574
33 | CGTCCGAC | -0.198
34 | CATCCCCC | -0.366
35 | GGAACGAC | -0.144
36 | GACGAAGC | -0.193
37 | CTAATAGA | 0.06
38 | GCCGCGAA | -0.0581
39 | ATATAGTA | 0.28
40 | GATTTTAC | 0.161
41 | ACTTGAGC | -0.259
42 | ACATGAGT | -0.0296
43 | CCTATATC | 0.0627
44 | AATTCCTC | 0.123
45 | GTCGTGGA | -0.0343
46 | GACATCAC | -0.149
47 | CCCCTGCA | -0.309
48 | CAGTGGGC | -0.183
49 | CAATGGCC | -0.296
50 | CGGGTGCA | -0.195

Row | Sequence | PBM E-score
51 | GTAACTAA | 0.115
52 | AATGACTC | 0.0434
53 | ACAAGAGA | -0.0248
54 | AATGACAG | -0.0979
55 | GACTTGCC | -0.24
56 | ATACATTC | 0.126
57 | CTAGGCAA | -0.121
58 | CATCACGA | -0.0307
59 | CTCTGTCC | -0.138
60 | AGCCCGGA | -0.0682
61 | CATATTGA | 0.0393
62 | CATTGGAG | -0.111
63 | CAAACGCA | -0.0782
64 | CGGTGCTA | -0.0592
65 | CATCTAAC | -0.131
66 | CTGGGTCC | -0.381
67 | CCATGTCC | -0.152
68 | CGAACGTA | -0.0312
69 | GGCCGCAA | -0.0811
70 | AATGTCGT | 0.123
71 | ACGGACCC | -0.266
72 | AGAAAACT | 0.227
73 | GCGAACCC | -0.115
74 | ACGTAAAT | -0.0471
75 | AGAGACAC | -0.115

Row | Sequence | PBM E-score
76 | CGTTAGAA | 0.0234
77 | ACTTCCTA | 0.093
78 | AGCGCGTC | -0.242
79 | ACACTAAA | 0.266
80 | GCAGCACC | -0.145
81 | CAACAAGC | 0.129
82 | ACCGAAAA | 0.234
83 | ATATAGGC | 0.173
84 | GGGTGCTA | -0.128
85 | GGGGCTAA | -0.171
86 | AACCTTAA | 0.217
87 | GCAATTGC | -0.0889
88 | AAAGTCTC | -0.149
89 | TGATTTAA | 0.201
90 | CCACGTGA | -0.00623
91 | ACAGCGAG | -0.0732
92 | CCTATTTC | 0.124
93 | CGTACTCC | -0.0493
94 | CCTGTATA | -0.00245
95 | ACATTAAA | 0.225
96 | ATTTGGAG | -0.0991
97 | GAGACGTA | 0.0844
98 | ACCCTATC | -0.133
99 | TCTGAGCA | 0.0208
100 | AAGCTTAG | 0.192

Row | Sequence | PBM E-score
101 | CGACAGGA | 0.0781
102 | AGTCATAT | 0.219
103 | ACCGATCG | -0.0706
104 | GTCAGCCA | -0.14
105 | AGTGCTAA | -0.0458
106 | TACCTCCA | -0.107
107 | ACACTACC | -0.00067
108 | GCGCGGTA | -0.00808
109 | AGGGATTG | 0.0227
110 | ACCTACGT | -0.114
111 | CAACCCTG | -0.0479
112 | CTACGAAG | -0.118
113 | GGGACTTA | -0.128
114 | CATGCACA | 0.139
115 | GCGCATGA | -0.276
116 | ATCGCACA | 0.0294
117 | AACGTGGG | -0.125
118 | CAATGTTC | 0.205
119 | ATGCTCTG | -0.111
120 | AGCATCCG | -0.127
121 | CCTCTCGA | -0.208
122 | ACGGCGCC | -0.241
123 | GGATTGTA | 0.0654
124 | CATCTGGA | -0.00738
125 | CCTTCGAG | -0.224

Row | Sequence | PBM E-score
126 | GATTTTTA | 0.209
127 | CCGGCGTA | -0.21
128 | GATAGCCC | -0.197
129 | AACGTGCA | -0.15
130 | AGCACTAG | 0.0133
131 | CTGATATA | 0.118
132 | GCAGATAC | -0.0897
133 | GTTCATCA | 0.0699
134 | ACGACTCT | -0.113
135 | CGATCACC | -0.0507
136 | CTGCGAAA | -0.119
137 | CTGTAGTA | 0.282
138 | AGCTGACT | -0.0611
139 | CCGGGTAA | 0.0724
140 | GACTACCA | -0.0785
141 | CGAGCCCC | -0.38
142 | GAGGCTGC | -0.245
143 | CCAATAGA | -0.00615
144 | AACCGTGC | -0.129
145 | ACATTCTA | -0.0592
146 | CGATACCA | 0.14
147 | GGGTATAA | -0.135
148 | CGGTAGCC | -0.105
149 | CTGACTAA | 0.00352
150 | GAAGAATC | 0.202

Row | Sequence | PBM E-score
151 | CTGTATCA | -0.15
152 | AGTGGGAA | 0.00886
153 | ATTGTTGG | 0.151
154 | CAGTTCGA | -0.0318
155 | CACTCTGA | -0.295
156 | CACATTAG | -0.0472
157 | ATTGCTAA | 0.234
158 | CGGAACTA | 0.191
159 | GGATATCC | 0.177
160 | AGACGACT | -0.0906
161 | GAATATCC | 0.227
162 | AGGGAGGA | -0.326
163 | ACTGTGGA | 0.0104
164 | GATCCGCC | 0.0423
165 | GTCGAGCA | -0.309
166 | CGCCTGAC | -0.169
167 | ATTCCCTG | 0.0828
168 | AGCAGTAG | -0.159
169 | CCGCCTAG | -0.0786
170 | AATGGTCC | 0.223
171 | GTAGCTAC | 0.0147
172 | AGACCAGA | 0.118
